Drawing on the RNAGym collection of RNA variant scans (doi:10.7554/elife.90254), this text covers self-cleavage for 167 variants.

Read counts are not given, so values of variants with three or more changes are uncertain.

To fix the notation:
B1: LINE1-full (parent)
chain: UACGUAGGUGGUUUUCCCCUGAUAGUGCUAAGGGGGCCUGGAAGUUUGGACUGGGCAGAGCUCAACACAGCGUGGCAAAGUGGCUGUGGCUAGACUGCCUCUCUGGAUUCCUCGUCACUCAGCAGGGCAUCUCUGAGAGAAAUGCC

This series covers variants of B1. Description: self-cleavage, relative activity (ratio to wild type); higher = more cleavage; in vitro, sequencing; the parent is a self-cleaving ribozyme.
U1C U12G A30G U112A: the self-cleavage came to 0.5. Regarding U5C U45C U47A A69G U96C, the self-cleavage was 0. With U5C A107G U109C, the self-cleavage amounted to 0.

For U1C U39G A59G U115C A141G A142U, the self-cleavage came to 0.

Regarding C63U G72A U132C, the self-cleavage came to 0.38. As for U12G G21A A43G U46A A57U U132G, the self-cleavage was found to be 0.25. For A57G C63U A78G G126U the value was 0.22; for A43G U52C A136U A141G, 2.04; for A65C U73A A140G, 0.02. As for G4A U14C U29C A77G, the self-cleavage was found to be 1.19.

Regarding G4A C28A A107G U115C A141G, the self-cleavage is 1.67. In the case of U26A A65G U115A, the self-cleavage turned out to be 0.04.

In the case of G4A A43G U112C, the self-cleavage was 1.46.

Consider U1C U9C G41U U62C A65G A94G, for which the self-cleavage came to 0.26. For U73C U134C A136G the value was 1.15; for C16U U20C A142G, 0.87; for U9C A24G A140G, 1.84. For U13C A107G A121G, the self-cleavage was 0.84. For U14C U26A G48U G88A U100C the value was 0. To A67G C71U U87C belongs 1.95.

Turning to G4A U14C U73C, the self-cleavage came to 1.31.

With A2U U23C C123A A138G, the self-cleavage amounted to 0.8.

As for U14A C19U A24G A77C, the self-cleavage amounted to 0.27. For U26C U39C A43G C145U the value was 1.23; for U39A A65C A78G U119A, 0.03; for G7U U47C U62C, 0.38. Take A42G G58C A121G A138G: the self-cleavage was 0.

U1C U73C C76U U130C: the self-cleavage was found to be 1.33. On to A42G U47C U62A, for which the self-cleavage came to 0.19. For G7A A43G U62C C76U A124G the value was 0.04; for U9A A77U U115C U143C, 2.06. Consider U100C C113U C133A, for which the self-cleavage turned out to be 2.19. For the variant A22U U52C U134A A140G U143C, the self-cleavage is 0.32. For U15C U23C U109C A140G, the self-cleavage amounted to 0.74. For U12C U15C A30G A50G G55C G74A the value was 0.35; for U14C U52A A121U A141G, 1.15. In the case of C17U U47A U108C, the self-cleavage turned out to be 0.76.

Turning to A24G C28U U100C, the self-cleavage was found to be 1.56. For U52A A77G U87C A92U U132C G135A the value was 0.15; for U14C U45C U96A, 0.06.

As to G11A U13A A124G, the self-cleavage was 0.53. Regarding C19U U39G U109C, the self-cleavage turned out to be 1.28. To U13C U46C U73A belongs 1.7. For A31U U62C U143A the value was 0.05; for U23A G49A U52A, 1.61.

For A59G A69G A141G, the self-cleavage stood at 0.12. In the case of A2G U15C U102C, the self-cleavage stood at 0.34.

C28G U85A A141G: the self-cleavage came to 0.08.

With G11C U15C A24U U62C U132C, the self-cleavage came to 0.18. For U12G U39C A50G the value was 0.91; for A77U U87C U100C, 0.19. For U52C U91C U109A the value was 0.66. On to U14A A42U U85C, for which the self-cleavage was 0.02.

In the case of U39A A69G A94C, the self-cleavage was 0.08. For G7U A43G U115C the value was 0.84; for A117U U119C A142G, 0.64. For U14A U46A A57G C68U U87A A107G U115A the value was 0.03; for A65G U85A C103U, 0.02. Turning to G4U U47C A121G A141G, the self-cleavage worked out at 1.53. To U12G A22G U73A U115A belongs 1.14; to U45C C116A A121G, 1.92; to U26C G70A U102C A136U, 0.18. On to U62C G83A U85C A121C A141G, for which the self-cleavage was determined as 0.03. In the case of U26C U46A U62C C113U, the self-cleavage was determined as 0.08. For A22G U96C C116A the value was 0.13; for A59G U132C A140G, 0.

On to U12G A30U C61U U87C, for which the self-cleavage came out at 0.13. For U1A U13C G32A A140G the value was 1.33. For U12C U81C U134C A140G the value was 0.54; for G35A A69G U134A A140G, 0.11; for U20C G53A U134C, 1.71. To U47C A64U A78G A138U belongs 0.5; to U14C U115A A129G, 1.62. For the variant U15A A77G C99A A124G, the self-cleavage is 0.64. To U39A A79G U85C A121U belongs 0; to U1C A31U U46C U81C A129U A138G, 0; to U12C A43G C68A, 0.12.

As to A59G A94G G139A, the self-cleavage came to 0.17. For U9C U62A A141G, the self-cleavage was found to be 0.16.

Regarding U9C U12G A78U U143C, the self-cleavage is 1.4. Regarding A2U U14C U46C U100C, the self-cleavage was 0.3. As to A50G A59G A67G C98U, the self-cleavage came out at 0.1. To A22U A67G U96C G114A belongs 0.06.

Turning to U13C U134G A142G, the self-cleavage was 1.75. For U9A G72C U81C A121C the value was 2.3. Regarding U15C U39A C51U G53A, the self-cleavage is 1.45.

Regarding U13A U46C G72A A79G, the self-cleavage is 0.95.

For U39A U112A U130C, the self-cleavage amounted to 0.

In the case of U100C A121G A142G, the self-cleavage is 0. As to A31G A43G U108C A138U, the self-cleavage came out at 0. To U39C U52A U119C U130C C146U belongs 1.61; to U9A A64G C118G, 0.2.

As for U5C A59G A138U, the self-cleavage amounted to 0.15. Turning to U12A A24G U96C, the self-cleavage was 0.09. For U14C U52A A121G the value was 1.01; for A43G U62C A107U, 0.03; for U12G U45C U132C, 0.86. To U5C A67G U119C belongs 2.3; to G58U A78U U85C, 0.06; to U14C G34U A50U, 1.2.

For the variant A22G U45A A50G, the self-cleavage is 0.74. To C71A A77U U100C A124G U130C A142G belongs 1.73; to A2G G122U A142G, 1.08; to U14A U20A A50G, 0.

On to U9A A77G A92G U134C, for which the self-cleavage is 0.

Turning to A24G G93U U109C A138G, the self-cleavage worked out at 0.1.

In the case of G32A G72A U85C, the self-cleavage came to 0.07. As to U14C A59G C113G U119C U134C, the self-cleavage amounted to 0.13.

As to U13C U62A A67U A121C, the self-cleavage was found to be 0.03. For A24U C76G A77G the value was 2.15; for U87A A107G A121U A138U, 0.03; for G55U A77G U115C, 0.7. To A78G C84G A107U U115A belongs 0.16; to A6U U45C A124G, 0.31; to A42G G72A A92G, 0.03. Regarding G34A U85A U109A, the self-cleavage was 0. To U23C A31U A140G belongs 0.77; to A30G A64G A138G, 1.38; to C18A U52A U102C U130C, 1.16. Turning to C38A U52C G88A U104C, the self-cleavage stood at 0.09.

Regarding A57G A64G A67U G126C, the self-cleavage was 0.12. In the case of U73A A92U A140G, the self-cleavage was 0.36. For U45C U87A A136U the value was 0.34. For A24G A31G U91A A140G, the self-cleavage is 0.66.

A22G A50U A64U U130C: the self-cleavage was determined as 0.58. To U39A A69G U134C belongs 1.4.

Take U115C A129U U143C: the self-cleavage was 1.68.

U52C A92C A138G: the self-cleavage stood at 0. U5G U46C U109A U134C: the self-cleavage is 1.92. To U9A U20G U81C belongs 0.63; to U20C U87C C128U, 0.45. To A2G U47A G58U A65G U119G belongs 0.12; to U47A U85A G114A, 0.07; to G10U U29C U39C A69U A79G C113U, 0. For A59U A94G C116U G122A the value was 2.1. As to G7U A42G A124U, the self-cleavage was determined as 1.78. For U15C A30G U112A A140U the value was 0.92; for A2G A94U A107G, 0.66; for U5G U46C A77G U112C A124U, 0.94. For U1C A24U A69U the value was 0.03; for U23C G75A G89U U100A U115A, 0.05.

With C38U U52C C61U C101U, the self-cleavage worked out at 0.01. Take U15C U46A A78U: the self-cleavage amounted to 2.17.

In the case of A69U U81C U91C U112C A136G, the self-cleavage amounted to 0.

For the variant U15C G72A U73C A129C, the self-cleavage was 2.45.

On to U62C U112C U130C, for which the self-cleavage is 0.

On to A24G A43G A94G, for which the self-cleavage was 0. Take G8C U20C U26C: the self-cleavage worked out at 2.51.

Regarding A6G U29C U46C A117U U134C, the self-cleavage came to 0.74. On to U85A A94U A141G, for which the self-cleavage worked out at 0.09. For G35A A50G G80A the value was 0.83. For the variant A2G U13C U46A G105A U119C A141G, the self-cleavage was 1.32. On to U5A A129G A141G, for which the self-cleavage stood at 0. With U15C A59G C71U U108C A141C, the self-cleavage amounted to 0.14.

For the variant G11A U20A U47C, the self-cleavage came out at 1.55. Regarding A2G U15C A69U U87C U104C U115A, the self-cleavage came to 0. In the case of U47C A77U U108C A124G, the self-cleavage was 0.54. On to U9C A77U U109C U112C U134A, for which the self-cleavage amounted to 1.12. For U46C A64U C66U A78G the value was 0.04; for U26A A77G A78G A138G, 1.31; for A31G U52C U85G, 0.

Turning to A65G U85C U109C, the self-cleavage was determined as 1.53.

For the variant U91C A94U U104C, the self-cleavage was found to be 0.5. As to G35U A57G A59U, the self-cleavage is 0.54. U52A U62C A65G: the self-cleavage came out at 0.

Take U100C U109C U115C: the self-cleavage was found to be 0. To U13C G49A A69U U85A belongs 0.17.
